Four substances from paper PMC6029351 can be followed below.

Protein sequences, listed by entry. Tags and fused reporters are not part of them. Lines headed by an entry give the natural chain unless they say otherwise; changes in a name come on top. Chains listed by the source or under a name are the forms on record and can include a tag or linker.
NLS-Nm23-H1 (Nm23-H1 with nuclear located sequence) (P15531, form named): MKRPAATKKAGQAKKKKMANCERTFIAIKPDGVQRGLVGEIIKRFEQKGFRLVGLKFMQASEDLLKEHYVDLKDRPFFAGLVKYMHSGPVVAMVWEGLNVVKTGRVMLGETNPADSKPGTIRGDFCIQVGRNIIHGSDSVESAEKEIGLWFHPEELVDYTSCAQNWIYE
UniProt P13010: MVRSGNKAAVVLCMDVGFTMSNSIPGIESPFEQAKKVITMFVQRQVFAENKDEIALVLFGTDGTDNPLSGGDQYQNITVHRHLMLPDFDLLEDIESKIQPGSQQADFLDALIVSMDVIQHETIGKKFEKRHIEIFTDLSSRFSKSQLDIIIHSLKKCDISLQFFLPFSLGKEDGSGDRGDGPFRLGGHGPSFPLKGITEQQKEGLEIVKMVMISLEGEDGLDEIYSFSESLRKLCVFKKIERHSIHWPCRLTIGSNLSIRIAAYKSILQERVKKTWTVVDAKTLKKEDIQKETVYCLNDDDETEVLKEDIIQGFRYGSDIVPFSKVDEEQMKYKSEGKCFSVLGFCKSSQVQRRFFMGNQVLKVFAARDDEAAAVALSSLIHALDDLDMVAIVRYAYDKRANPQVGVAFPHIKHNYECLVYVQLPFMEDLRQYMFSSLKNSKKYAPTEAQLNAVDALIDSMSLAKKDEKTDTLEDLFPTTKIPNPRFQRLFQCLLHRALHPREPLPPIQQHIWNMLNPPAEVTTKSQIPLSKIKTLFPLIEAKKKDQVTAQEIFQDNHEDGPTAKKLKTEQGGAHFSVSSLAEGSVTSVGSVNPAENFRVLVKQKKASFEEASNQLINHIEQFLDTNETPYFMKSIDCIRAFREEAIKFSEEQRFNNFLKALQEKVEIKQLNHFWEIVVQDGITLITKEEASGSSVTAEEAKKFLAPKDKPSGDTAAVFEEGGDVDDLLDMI
UniProt Q92878: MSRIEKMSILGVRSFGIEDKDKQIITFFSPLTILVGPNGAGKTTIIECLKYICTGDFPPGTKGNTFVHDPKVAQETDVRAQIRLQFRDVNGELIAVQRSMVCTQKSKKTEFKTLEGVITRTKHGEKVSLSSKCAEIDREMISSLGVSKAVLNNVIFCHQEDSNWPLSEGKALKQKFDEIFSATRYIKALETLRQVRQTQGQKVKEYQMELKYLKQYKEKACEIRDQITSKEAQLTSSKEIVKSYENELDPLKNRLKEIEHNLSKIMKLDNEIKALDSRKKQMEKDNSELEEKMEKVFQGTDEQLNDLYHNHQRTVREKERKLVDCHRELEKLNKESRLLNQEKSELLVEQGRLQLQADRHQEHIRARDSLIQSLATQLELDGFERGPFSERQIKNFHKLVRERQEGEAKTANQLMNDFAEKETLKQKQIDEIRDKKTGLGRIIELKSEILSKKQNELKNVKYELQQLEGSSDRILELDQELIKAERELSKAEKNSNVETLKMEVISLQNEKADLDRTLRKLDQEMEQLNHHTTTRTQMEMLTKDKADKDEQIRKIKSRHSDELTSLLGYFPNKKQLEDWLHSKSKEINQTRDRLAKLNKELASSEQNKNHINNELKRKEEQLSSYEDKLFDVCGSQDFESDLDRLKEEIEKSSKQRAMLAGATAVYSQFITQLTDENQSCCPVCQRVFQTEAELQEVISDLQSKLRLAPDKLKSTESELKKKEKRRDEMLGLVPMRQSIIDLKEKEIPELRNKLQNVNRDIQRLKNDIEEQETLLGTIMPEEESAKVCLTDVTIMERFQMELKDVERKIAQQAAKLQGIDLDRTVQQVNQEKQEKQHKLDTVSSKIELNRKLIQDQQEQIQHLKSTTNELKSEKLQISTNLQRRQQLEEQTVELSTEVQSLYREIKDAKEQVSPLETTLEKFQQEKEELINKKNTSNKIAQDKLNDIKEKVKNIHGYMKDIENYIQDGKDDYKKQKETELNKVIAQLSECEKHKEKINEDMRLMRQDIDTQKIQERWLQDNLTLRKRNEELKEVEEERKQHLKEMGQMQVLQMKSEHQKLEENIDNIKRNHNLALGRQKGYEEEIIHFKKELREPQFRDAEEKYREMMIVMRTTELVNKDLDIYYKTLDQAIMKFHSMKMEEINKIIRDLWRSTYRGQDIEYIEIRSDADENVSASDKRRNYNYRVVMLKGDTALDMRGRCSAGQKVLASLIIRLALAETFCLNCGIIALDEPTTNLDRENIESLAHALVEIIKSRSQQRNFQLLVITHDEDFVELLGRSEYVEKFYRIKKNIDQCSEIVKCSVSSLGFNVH
UniProt P78527: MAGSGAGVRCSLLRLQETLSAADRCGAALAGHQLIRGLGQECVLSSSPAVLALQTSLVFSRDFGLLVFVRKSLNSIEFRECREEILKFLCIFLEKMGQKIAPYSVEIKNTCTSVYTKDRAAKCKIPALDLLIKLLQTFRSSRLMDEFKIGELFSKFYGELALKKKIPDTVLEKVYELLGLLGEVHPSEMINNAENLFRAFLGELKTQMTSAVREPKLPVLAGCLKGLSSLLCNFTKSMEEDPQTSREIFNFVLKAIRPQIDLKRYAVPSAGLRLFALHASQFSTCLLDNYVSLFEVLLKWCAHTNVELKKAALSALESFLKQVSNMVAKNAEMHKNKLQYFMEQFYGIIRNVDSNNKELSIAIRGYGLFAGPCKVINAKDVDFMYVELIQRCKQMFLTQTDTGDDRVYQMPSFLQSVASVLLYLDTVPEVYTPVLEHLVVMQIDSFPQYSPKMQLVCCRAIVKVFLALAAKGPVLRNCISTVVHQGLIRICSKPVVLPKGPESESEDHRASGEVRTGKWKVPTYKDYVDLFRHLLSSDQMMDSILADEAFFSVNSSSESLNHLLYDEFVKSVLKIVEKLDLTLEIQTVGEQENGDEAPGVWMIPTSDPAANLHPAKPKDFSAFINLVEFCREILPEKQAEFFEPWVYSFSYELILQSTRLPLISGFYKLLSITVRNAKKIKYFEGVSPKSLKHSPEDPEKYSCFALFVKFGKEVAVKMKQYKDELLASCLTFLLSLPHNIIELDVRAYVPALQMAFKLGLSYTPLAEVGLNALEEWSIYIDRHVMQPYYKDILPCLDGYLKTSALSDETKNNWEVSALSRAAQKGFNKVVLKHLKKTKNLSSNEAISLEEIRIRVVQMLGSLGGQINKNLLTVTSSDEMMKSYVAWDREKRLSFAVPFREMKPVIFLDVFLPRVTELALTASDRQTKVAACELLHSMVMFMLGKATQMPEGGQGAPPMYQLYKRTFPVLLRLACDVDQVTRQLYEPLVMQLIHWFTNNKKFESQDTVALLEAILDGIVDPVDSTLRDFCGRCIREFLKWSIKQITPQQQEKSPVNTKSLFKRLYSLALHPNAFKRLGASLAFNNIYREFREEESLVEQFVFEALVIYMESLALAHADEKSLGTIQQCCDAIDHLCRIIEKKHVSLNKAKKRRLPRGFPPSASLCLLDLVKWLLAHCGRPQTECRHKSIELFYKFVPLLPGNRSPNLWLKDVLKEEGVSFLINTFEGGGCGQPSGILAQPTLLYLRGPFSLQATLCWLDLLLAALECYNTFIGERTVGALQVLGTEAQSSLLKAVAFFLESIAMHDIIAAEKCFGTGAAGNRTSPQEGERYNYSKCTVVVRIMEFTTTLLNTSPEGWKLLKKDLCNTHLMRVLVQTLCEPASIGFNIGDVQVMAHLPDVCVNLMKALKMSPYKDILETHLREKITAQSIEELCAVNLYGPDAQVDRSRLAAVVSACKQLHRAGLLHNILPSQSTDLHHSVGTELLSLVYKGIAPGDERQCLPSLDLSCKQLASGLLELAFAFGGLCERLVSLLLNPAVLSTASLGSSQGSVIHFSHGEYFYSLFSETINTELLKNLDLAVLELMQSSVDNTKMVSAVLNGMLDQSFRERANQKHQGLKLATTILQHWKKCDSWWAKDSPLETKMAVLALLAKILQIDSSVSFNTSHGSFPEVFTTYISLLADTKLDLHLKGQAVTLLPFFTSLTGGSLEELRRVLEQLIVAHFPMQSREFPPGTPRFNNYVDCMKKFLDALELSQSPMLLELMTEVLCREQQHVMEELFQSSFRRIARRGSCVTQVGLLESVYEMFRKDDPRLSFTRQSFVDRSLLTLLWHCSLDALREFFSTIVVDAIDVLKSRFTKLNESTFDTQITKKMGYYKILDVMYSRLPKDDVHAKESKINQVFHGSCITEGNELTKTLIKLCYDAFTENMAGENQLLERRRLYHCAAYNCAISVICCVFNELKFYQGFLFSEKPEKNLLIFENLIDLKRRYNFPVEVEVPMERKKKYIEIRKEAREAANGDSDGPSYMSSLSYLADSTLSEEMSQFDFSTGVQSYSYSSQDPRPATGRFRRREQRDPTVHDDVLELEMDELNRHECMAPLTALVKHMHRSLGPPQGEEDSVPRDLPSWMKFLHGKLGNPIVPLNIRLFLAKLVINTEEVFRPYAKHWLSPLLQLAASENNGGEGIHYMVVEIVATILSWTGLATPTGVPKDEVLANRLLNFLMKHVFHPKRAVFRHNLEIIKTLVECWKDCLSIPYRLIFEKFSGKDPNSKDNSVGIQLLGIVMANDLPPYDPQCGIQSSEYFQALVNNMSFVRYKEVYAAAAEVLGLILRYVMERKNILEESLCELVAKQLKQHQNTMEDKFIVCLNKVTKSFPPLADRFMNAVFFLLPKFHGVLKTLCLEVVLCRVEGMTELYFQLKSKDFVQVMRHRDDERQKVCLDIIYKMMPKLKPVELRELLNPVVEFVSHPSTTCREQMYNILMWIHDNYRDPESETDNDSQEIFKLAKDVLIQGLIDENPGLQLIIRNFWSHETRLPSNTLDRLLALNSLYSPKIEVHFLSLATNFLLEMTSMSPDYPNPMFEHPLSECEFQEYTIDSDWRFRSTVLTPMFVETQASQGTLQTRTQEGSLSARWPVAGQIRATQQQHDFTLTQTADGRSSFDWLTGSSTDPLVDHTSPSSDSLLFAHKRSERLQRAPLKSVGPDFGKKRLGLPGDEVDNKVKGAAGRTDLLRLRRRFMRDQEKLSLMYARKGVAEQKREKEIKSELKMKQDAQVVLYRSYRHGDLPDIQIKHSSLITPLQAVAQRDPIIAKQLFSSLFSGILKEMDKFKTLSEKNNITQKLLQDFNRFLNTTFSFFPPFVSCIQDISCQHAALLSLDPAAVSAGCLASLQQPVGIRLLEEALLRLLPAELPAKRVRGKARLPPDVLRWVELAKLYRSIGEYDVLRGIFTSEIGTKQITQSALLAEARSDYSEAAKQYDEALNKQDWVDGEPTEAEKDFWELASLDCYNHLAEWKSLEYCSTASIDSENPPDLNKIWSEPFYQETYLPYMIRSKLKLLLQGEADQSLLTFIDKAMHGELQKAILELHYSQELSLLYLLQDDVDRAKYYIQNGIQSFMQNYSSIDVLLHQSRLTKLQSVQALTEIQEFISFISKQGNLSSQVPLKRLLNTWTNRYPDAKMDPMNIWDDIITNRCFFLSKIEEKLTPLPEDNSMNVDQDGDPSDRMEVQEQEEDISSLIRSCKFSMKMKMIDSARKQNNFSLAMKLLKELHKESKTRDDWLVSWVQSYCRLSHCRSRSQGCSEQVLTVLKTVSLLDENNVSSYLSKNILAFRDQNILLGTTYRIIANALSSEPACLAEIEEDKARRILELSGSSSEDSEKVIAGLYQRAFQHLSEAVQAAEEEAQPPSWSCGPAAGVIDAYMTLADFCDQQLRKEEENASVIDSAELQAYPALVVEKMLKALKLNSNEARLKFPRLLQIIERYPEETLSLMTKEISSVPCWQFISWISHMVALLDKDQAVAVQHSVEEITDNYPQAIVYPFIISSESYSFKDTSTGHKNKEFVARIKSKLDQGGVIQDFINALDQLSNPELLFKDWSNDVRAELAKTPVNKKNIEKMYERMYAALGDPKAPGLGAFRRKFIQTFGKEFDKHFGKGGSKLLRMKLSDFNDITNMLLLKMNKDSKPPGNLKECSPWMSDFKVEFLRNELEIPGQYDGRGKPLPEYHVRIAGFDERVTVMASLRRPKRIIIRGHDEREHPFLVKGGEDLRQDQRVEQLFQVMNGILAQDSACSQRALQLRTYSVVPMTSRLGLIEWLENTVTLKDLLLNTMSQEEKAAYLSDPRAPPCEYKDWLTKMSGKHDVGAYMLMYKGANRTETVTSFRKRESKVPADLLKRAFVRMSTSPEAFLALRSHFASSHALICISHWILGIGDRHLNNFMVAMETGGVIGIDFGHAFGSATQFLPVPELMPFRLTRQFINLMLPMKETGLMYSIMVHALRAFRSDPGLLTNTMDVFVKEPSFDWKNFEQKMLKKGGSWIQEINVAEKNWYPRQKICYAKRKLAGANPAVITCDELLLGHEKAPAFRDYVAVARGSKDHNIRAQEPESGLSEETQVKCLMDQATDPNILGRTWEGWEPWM

These are yes or no findings as the source states them, for the method shown. Binding seen in cells or lysates may run through a third protein. Some binding calls cover weakened binding; strength is not graded here.

The target in test [1] is NLS-Nm23-H1 (Nm23-H1 with nuclear located sequence) (human) (UniProt P15531). As to the kind of experiment: co-IP; A549-nNm23-H1 cells before irradiation (0 h); 200 ug cell protein with 5 ug anti-Nm23-H1 monoclonal antibody 12 h at 4 °C, protein G agarose 4 h at 4 °C; Western blot for NBS1, RAD50, MRE11, Ku80, DNA-PKcs; IgG as control.
For test [2] the target is unchanged. As to the kind of experiment: co-IP; A549-nNm23-H1 cells collected 8 h after 8 Gy X-rays; 200 ug cell protein with 5 ug anti-Nm23-H1 monoclonal antibody 12 h at 4 °C, protein G agarose 4 h at 4 °C; Western blot for NBS1, RAD50, MRE11, Ku80, DNA-PKcs; IgG as control.

Regarding “X-ray repair cross-complementing 5 (XRCC5, also known as Ku80) (from UniProt P13010 1-732)”, the results for the binding entry in test [1] and in test [2] were “no binding (condition: before irradiation (0 h))” and “binds”, respectively.

As to RAD50 (from UniProt Q92878 1-1312), the binding entry in test [1] was “no binding (condition: before irradiation (0 h))”; in test [2], “binds”.

As to NBS1 (from UniProt O60934 1-754), the binding entry in test [1] is reported as “no binding (condition: before irradiation (0 h))”; in test [2], “binds”.

Consider “catalytic polypeptide of DNA-activated protein kinase (PRKDC, also known as DNA-PKcs) (from UniProt P78527 1-4128)”, for which the binding entry in test [1] and in test [2] was “no binding” in each case.
